Measurements as given in publication PMC6919601, “Identification of Plasmodium dipeptidyl aminopeptidase allosteric inhibitors by high throughput screening” (PLoS ONE, 2019).
In all, about 110,000 compounds went through this assay and about 230 (0.21%) showed an effect of 50% or more. This is one part of the list.

Molecular target: DPAP1 (Plasmodium falciparum, UniProt Q8IIJ9)
Assay: primary screen, percent inhibition; read by cleavage of a fluorogenic dipeptide substrate; higher = more effect of the substance
Design: species or system P. falciparum D10 trophozoite lysates; single well
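Note: 30 min substrate incubation versus DMSO and 10 µM JCP410 controls.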

Chain of DPAP1 (Q8IIJ9 whole entry, looked up): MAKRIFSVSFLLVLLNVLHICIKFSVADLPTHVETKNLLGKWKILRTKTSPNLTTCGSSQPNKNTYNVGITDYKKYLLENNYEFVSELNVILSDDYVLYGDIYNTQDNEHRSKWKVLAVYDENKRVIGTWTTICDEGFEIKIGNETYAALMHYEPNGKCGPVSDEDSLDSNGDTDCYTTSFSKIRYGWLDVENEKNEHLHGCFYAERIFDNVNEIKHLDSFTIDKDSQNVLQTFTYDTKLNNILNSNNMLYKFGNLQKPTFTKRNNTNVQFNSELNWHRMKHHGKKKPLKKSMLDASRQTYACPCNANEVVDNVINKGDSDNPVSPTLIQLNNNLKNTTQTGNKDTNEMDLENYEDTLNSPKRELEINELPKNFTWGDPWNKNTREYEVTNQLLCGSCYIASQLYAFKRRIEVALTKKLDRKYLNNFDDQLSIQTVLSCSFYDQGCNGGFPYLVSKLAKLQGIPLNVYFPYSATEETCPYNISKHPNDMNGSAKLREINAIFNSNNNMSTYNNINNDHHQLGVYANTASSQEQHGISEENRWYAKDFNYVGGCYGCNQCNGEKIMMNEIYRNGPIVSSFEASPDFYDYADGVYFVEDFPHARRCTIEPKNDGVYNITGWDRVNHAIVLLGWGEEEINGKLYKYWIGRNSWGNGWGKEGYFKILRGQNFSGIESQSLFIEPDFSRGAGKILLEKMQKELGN

Row | SMILES | % Inhibition @ 10 uM [%]
1 | COc1ccc(Br)cc1CNCCSc1nnnn1C | 0.00706
2 | O=C(NC(c1ccccc1Cl)c1ccc2cccnc2c1O)c1ccccc1 (stereo not drawn) | 13.3
3 | O=C(O)c1nnn(Cc2cccc(C(F)(F)F)c2)c1C(=O)O | -2.41
4 | O=C(Nc1cccc(NC(=O)c2ccco2)c1)c1cnccn1 | 2.42
5 | COc1ccccc1N1C(=O)CC(N2CCN(c3cccc(C(F)(F)F)c3)CC2)C1=O (stereo not drawn) | 2.91
6 | O=C(O)c1ccc(CNS(=O)(=O)c2cccc3nsnc23)cc1 | 2.18
7 | CC1CC(C)CN(c2oc(/C=C/c3ccc(F)cc3)nc2C#N)C1 (stereo not drawn) | 0.895
8 | COc1c2c(nc3occc13)C(CCC(C)(C)O)(OC)C(O)CC2 (stereo not drawn) | 3.9
9 | c1ccc(-c2cc3c(ccc4nonc43)[nH]2)cc1 | -0.294
10 | Nc1nc(NCc2ccccc2F)nn1-c1ccccc1 | -9.33
11 | COc1ccc(C(=O)c2coc3ccc(O)cc23)cc1 | -2.75
12 | CC1(C)CC(=O)C2=C(C1)OC(N)=C(C#N)C21C(=O)Nc2ccc(Br)cc21 (stereo not drawn) | 3.01
13 | CO/C(O)=C1\C(C)=NC2=C(C(=O)CC(C)(C)C2)C1c1ccccc1Cl (stereo not drawn) | -4.01
14 | O=C(CCn1c(=O)c2cccn2c2cccnc21)NCCC1=CCCCC1 | -2.15
15 | Cc1cccc(-n2nnc(-c3nc(-c4ccccc4F)no3)c2N)c1 | -2.76
16 | Cc1nc2ccc(NC(=O)N(C)c3ccccc3)cc2s1 | 1.94
17 | CSc1nn2c(=O)cc(CSc3nnc(C)s3)nc2s1 | 15
18 | CC1=C(C(=O)Nc2cccc(C)c2C)C(c2ccccc2Br)NC(=O)N1 (stereo not drawn) | -12.5
19 | COc1ccc(-c2nnn3c2nc(NCc2ccccc2Cl)c2ccccc23)cc1 | -1.21
20 | CCc1nccn1C(=O)CCCC(=O)O | 6.11
21 | CCOc1ccc(CCNC(=O)c2ccc(CS(=O)(=O)c3ccc(C)cc3)o2)cc1OCC | 0.458

Row | SMILES | % Inhibition @ 10 uM [%]
22 | Cc1cc(C)c(C#N)c(SCC(=O)NCc2ccc3c(c2)OCO3)n1 | -0.68
23 | Cc1cc(CNC(=O)c2cccc(C(F)(F)F)c2)c2ccccc2n1 | 4.61
24 | Cc1nnc(N2CCC(C(=O)NCCCc3ccccc3)CC2)c2nn(-c3ccccc3)c(C)c12 | 5.3
25 | COc1ccc(CCNC(=O)C2CCCN(c3ncnc4c3nc3n4CCCCC3)C2)c(OC)c1 (stereo not drawn) | 2.82
26 | Cc1ccc(N2C(=O)NC(=O)/C(=C/NCCO)C2=O)cc1C | 0.792
27 | CCOC(=O)c1c(C)[nH]c(C)c1S(=O)(=O)N1CCC(C(=O)NCc2ccc(Cl)cc2)CC1 | -0.695
28 | O=C(c1ccccc1)N1c2ccccc2C=Cc2ccccc21 | -0.591
29 | O=C(O)C1CCC(CNS(=O)(=O)c2cccc3nsnc23)CC1 (stereo not drawn) | -5.76
30 | COc1ccccc1CCNC1CCC(c2ccccc2)CC1 (stereo not drawn) | -1.21
31 | Cc1[nH]c2ccccc2c1CCN(Cc1ccncc1)C(=S)NC(C)(C)C | 3.49
32 | Cc1ccc(NC(=O)C2CCCN(c3ncnc4c3nc3n4CCCCC3)C2)nc1 (stereo not drawn) | 0.00353
33 | COC(=O)c1c(NC(=O)c2ccccc2)sc(C(=O)Nc2ccccc2F)c1C | 1.39
34 | COC(=S)/N=C(\NCS(=O)(=O)c1ccc(C)cc1)c1ccccc1 | -5.28
35 | CCOc1ccc(CSc2nnc(N)s2)cc1-n1nc2ccccc2n1 | -3.34
36 | O=C(NCCN1CCOCC1)c1nnc(Cc2cccc(F)c2)o1 | 4.24
37 | CCN(CC)CCOC(=O)C1(c2ccc([N+](=O)[O-])cc2)CCCC1 | 3.44
38 | COc1cc(OC)cc(OCC(O)Cn2cnc3cc(C)c(C)cc32)c1 (stereo not drawn) | -1.11
39 | Cc1ccc(/C=C2\SC(=O)N(Cc3ccc(F)cc3)C2=O)o1 | -4.82
40 | COc1cc2c(cc1OC)C(=C(Cl)Cl)NC(C)(C)C2 | -2.15
41 | Cc1cc(C(=O)Nc2ccc3oc(-c4cccc(Br)c4)nc3c2)ccc1[N+](=O)[O-] | 2.54
42 | CCCOc1ccc(-c2nc(N(CC)CC)c3ccccc3n2)cc1 | 0.146

Row | SMILES | % Inhibition @ 10 uM [%]
43 | CC(=O)Nc1ccc(NC(=O)COc2cc(C)c(Br)c(C)c2)cc1 | 14.7
44 | CCOC(=O)C1CCCCN1Cc1ccccc1C(F)(F)F (stereo not drawn) | 1.55
45 | Cc1ccc(COc2ccc3c(C)cc(=O)oc3c2)cc1 | -5.9
46 | CCn1c(=N)c(C(=O)OC)cc2c(=O)n3cc(C)ccc3nc21 | -9.1
47 | CC1CN(C)C(C)c2c1oc1c([N+](=O)[O-])cccc21 (stereo not drawn) | -4.58
48 | Cn1c(=O)c2c(nc(CN3CCC(Cc4ccccc4)CC3)n2CCCO)n(C)c1=O | -3.23
49 | O=C(N1CCN(S(=O)(=O)c2ccc(Cl)cc2)CC1)N(c1ccccc1)c1ccccc1 | 5.31
50 | COc1ccccc1-c1nc(-c2ccc(Cl)cc2Cl)no1 | -1.4
51 | COCc1nc(-c2cc3ccc(C)cc3nc2O)no1 | -5.62
52 | CCn1c(C(=O)N2CCC(C(=O)NCc3ccc(C)cc3)CC2)cc2sccc21 | 1.77
53 | COc1ccc(-c2c(C)nn3c(N4CCOCC4)cc(C)nc23)cc1OC | -11.6
54 | CCOc1ccc(C2=CC(=O)C(c3ccccc3)CC2)cc1 (stereo not drawn) | 5.77
55 | Cc1ccc(CN2CCN(c3ccccn3)CC2)c(C)c1 | 4.81
56 | Cc1ccc2c(Cl)c(C(=O)N(Cc3ccccc3F)C3CCS(=O)(=O)C3)sc2c1 (stereo not drawn) | 0.366
57 | COc1ccc(-c2cc(N)n(S(=O)(=O)c3ccc(F)c(C)c3)n2)c(OC)c1 | 1.15
58 | COc1cc(NC(=O)C2CC2)c(OC)cc1Cl | 0.219
59 | CCN(CC)C(=O)C1CCCN(Cc2cccc([N+](=O)[O-])c2)C1 (stereo not drawn) | -3.95
60 | CCc1ccc(-c2cc3c(=O)n(CC(=O)NCc4ccc(C)cc4)nc(C)n3n2)cc1 | -1.08
61 | COc1cc(CN2CCN(C(=O)c3ccco3)CC2)cc(OC)c1OC | 7.1
62 | O=C1OC(/C=C/c2cccc(Cl)c2Cl)=NC/1=C\c1ccco1 | 11.5
63 | Cc1cc(C(=O)N2CCC(C)CC2)c2c(C)nn(-c3ccccc3Cl)c2n1 | 3.75
